# Assay results taken from the supplement of paper PMC8728848.
# Some of the results follow.
# Tests used:
# Experiment in all cases: glycan array binding signal (z-score within array); higher = stronger binding
# Settings in all cases: glycan notation: IUPAC condensed, linker removed
# Fuc(a1-2)Gal = target: Fuc(a1-2)Gal
# Outline: (§1)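 The binding signal is a Z-score computed within each array and averaged over linkers. Arrays of the same protein sequence at different concentrations or buffers were also averaged together. Data originate from 3228 arrays in the Consortium for Functional Glycomics database, kept only where the protein sequence was available.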
# Fuc(a1-2)Gal(b1-3)GalNAc = target: Fuc(a1-2)Gal(b1-3)GalNAc
# Outline: as §1
# [1] = target: Fuc(a1-2)Gal(b1-3)GalNAc(a1-3)[Fuc(a1-2)]Gal(b1-4)Glc
# Outline: as §1
# [2] = target: Fuc(a1-2)Gal(b1-3)GalNAc(a1-3)[Fuc(a1-2)]Gal(b1-4)GlcNAc
# Outline: as §1
# [3] = target: Fuc(a1-2)Gal(b1-3)GalNAc(b1-3)Gal
# Outline: as §1
# [4] = target: Fuc(a1-2)Gal(b1-3)GalNAc(b1-3)Gal(a1-4)Gal(b1-4)Glc
# Outline: as §1
# [5] = target: Fuc(a1-2)Gal(b1-3)GalNAc(b1-4)[Neu5Ac(a2-3)]Gal(b1-4)Glc
# Outline: as §1
# Fuc(a1-2)Gal(b1-3)GlcNAc = target: Fuc(a1-2)Gal(b1-3)GlcNAc
# Outline: as §1
# [6] = target: Fuc(a1-2)Gal(b1-3)GlcNAc(b1-2)Man(a1-3)[Fuc(a1-2)Gal(b1-3)GlcNAc(b1-2)Man(a1-6)]Man(b1-4)GlcNAc(b1-4)GlcNAc
# Outline: as §1
# [7] = target: Fuc(a1-2)Gal(b1-3)GlcNAc(b1-2)Man(a1-3)[Fuc(a1-2)Gal(b1-3)GlcNAc(b1-2)Man(a1-6)]Man(b1-4)GlcNAc(b1-4)[Fuc(a1-6)]GlcNAc
# Outline: as §1
# [8] = target: Fuc(a1-2)Gal(b1-3)GlcNAc(b1-3)Gal(b1-4)Glc
# Outline: as §1
# [9] = target: Fuc(a1-2)Gal(b1-3)GlcNAc(b1-3)GalNAc
# Outline: as §1
# [10] = target: Fuc(a1-2)Gal(b1-3)GlcNAc(b1-3)[Fuc(a1-2)Gal(b1-3)GlcNAc(b1-6)]GalNAc
# Outline: as §1
# [11] = target: Fuc(a1-2)Gal(b1-3)GlcNAc(b1-3)[Gal(b1-4)GlcNAc(b1-6)]Gal(b1-4)Glc
# Outline: as §1
# [12] = target: Fuc(a1-2)Gal(b1-3)GlcNAc(b1-3)[Neu5Ac(a2-6)Gal(b1-4)GlcNAc(b1-6)]Gal(b1-4)Glc
# Outline: as §1
# [13] = target: Fuc(a1-2)Gal(b1-3)GlcNAc6S
# Outline: as §1
# [14] = target: Fuc(a1-2)Gal(b1-3)[Fuc(a1-4)]GlcNAc
# Outline: as §1
# [15] = target: Fuc(a1-2)Gal(b1-3)[Fuc(a1-4)]GlcNAc(b1-2)Man(a1-3)[Fuc(a1-2)Gal(b1-3)[Fuc(a1-4)]GlcNAc(b1-2)Man(a1-3)]Man(b1-4)GlcNAc(b1-4)GlcNAc
# Outline: as §1
# [16] = target: Fuc(a1-2)Gal(b1-3)[Fuc(a1-4)]GlcNAc(b1-2)Man(a1-3)[Fuc(a1-2)Gal(b1-3)[Fuc(a1-4)]GlcNAc(b1-2)Man(a1-6)]Man(b1-4)GlcNAc(b1-4)[Fuc(a1-6)]GlcNAc(b1-4)[Fuc(a1-6)]GlcNAc
# Outline: as §1
# [17] = target: Fuc(a1-2)Gal(b1-3)[Fuc(a1-4)]GlcNAc(b1-3)[Fuc(a1-3)[Gal(b1-4)]GlcNAc(b1-6)]Gal(b1-4)Glc
# Outline: as §1
# [18] = target: Fuc(a1-2)Gal(b1-3)[Fuc(a1-4)]GlcNAc(b1-3)[Gal(b1-4)GlcNAc(b1-6)]Gal(b1-4)Glc
# Outline: as §1
# [19] = target: Fuc(a1-2)Gal(b1-4)Fuc(a1-3)]GlcNAc(b1-2)Man(a1-3)[Fuc(a1-2)Gal(b1-4)[Fuc(a1-3)]GlcNAc(b1-2)Man(a1-6)]Man(b1-4)GlcNAc(b1-4)GlcNAc
# Outline: as §1
# Fuc(a1-2)Gal(b1-4)Glc = target: Fuc(a1-2)Gal(b1-4)Glc
# Outline: as §1
# Fuc(a1-2)Gal(b1-4)Glc6S = target: Fuc(a1-2)Gal(b1-4)Glc6S
# Outline: as §1
# Fuc(a1-2)Gal(b1-4)GlcNAc = target: Fuc(a1-2)Gal(b1-4)GlcNAc
# Outline: as §1
# [20] = target: Fuc(a1-2)Gal(b1-4)GlcNAc(b1-2)Man
# Outline: as §1
# [21] = target: Fuc(a1-2)Gal(b1-4)GlcNAc(b1-2)Man(a1-3)[Fuc(a1-2)Gal(b1-4)GlcNAc(b1-2)Man(a1-6)]Man(b1-4)GlcNAc(b1-4)GlcNAc
# Outline: as §1
# [22] = target: Fuc(a1-2)Gal(b1-4)GlcNAc(b1-2)Man(a1-3)[Fuc(a1-2)Gal(b1-4)GlcNAc(b1-2)Man(a1-6)]Man(b1-4)GlcNAc(b1-4)[Fuc(a1-6)]GlcNAc
# Outline: as §1
# [23] = target: Fuc(a1-2)Gal(b1-4)GlcNAc(b1-2)[Fuc(a1-2)Gal(b1-4)GlcNAc(b1-4)]Man(a1-3)[Fuc(a1-2)Gal(b1-4)GlcNAc(b1-2)Man(a1-6)]Man(b1-4)GlcNAc(b1-4)GlcNAc
# Outline: as §1
# [24] = target: Fuc(a1-2)Gal(b1-4)GlcNAc(b1-3)Gal(b1-4)GlcNAc
# Outline: as §1
# [25] = target: Fuc(a1-2)Gal(b1-4)GlcNAc(b1-3)Gal(b1-4)GlcNAc(b1-2)Man(a1-3)[Fuc(a1-2)Gal(b1-4)GlcNAc(b1-3)Gal(b1-4)GlcNAc(b1-2)Man(a1-6)]Man(b1-4)GlcNAc(b1-4)GlcNAc
# Outline: as §1
# [26] = target: Fuc(a1-2)Gal(b1-4)GlcNAc(b1-3)Gal(b1-4)GlcNAc(b1-3)Gal(b1-4)GlcNAc
# Outline: as §1
# [27] = target: Fuc(a1-2)Gal(b1-4)GlcNAc(b1-3)GalNAc
# Outline: as §1
# [28] = target: Fuc(a1-2)Gal(b1-4)GlcNAc(b1-3)[Fuc(a1-2)Gal(b1-4)GlcNAc(b1-6)]GalNAc
# Outline: as §1
# [29] = target: Fuc(a1-2)Gal(b1-4)GlcNAc(b1-3)[Fuc(a1-3)[Gal(b1-4)]GlcNAc(b1-6)]Gal(b1-4)Glc
# Outline: as §1
# [30] = target: Fuc(a1-2)Gal(b1-4)GlcNAc(b1-6)GalNAc
# Outline: as §1
# [31] = target: Fuc(a1-2)Gal(b1-4)GlcNAc6S
# Outline: as §1
# [32] = target: Fuc(a1-2)Gal(b1-4)[Fuc(a1-3)]GlcNAc
# Outline: as §1
# [33] = target: Fuc(a1-2)Gal(b1-4)[Fuc(a1-3)]GlcNAc(b1-2)Man(a1-3)[Fuc(a1-2)Gal(b1-4)[Fuc(a1-3)]GlcNAc(b1-2)Man(a1-6)]Man(b1-4)GlcNAc(b1-4)[Fuc(a1-6)]GlcNAc
# Outline: as §1
# [34] = target: Fuc(a1-2)Gal(b1-4)[Fuc(a1-3)]GlcNAc(b1-2)[Fuc(a1-2)Gal(b1-4)[Fuc(a1-3)]GlcNAc(b1-4)]Man(a1-3)[Fuc(a1-2)Gal(b1-4)[Fuc(a1-3)]GlcNAc(b1-2)Man(a1-6)]Man(b1-4)GlcNAc(b1-4)GlcNAc
# Outline: as §1
# [35] = target: Fuc(a1-2)Gal(b1-4)[Fuc(a1-3)]GlcNAc(b1-3)Gal(b1-4)[Fuc(a1-3)]GlcNAc
# Outline: as §1
# [36] = target: Fuc(a1-2)Gal(b1-4)[Fuc(a1-3)]GlcNAc(b1-3)Gal(b1-4)[Fuc(a1-3)]GlcNAc(b1-3)Gal(b1-4)[Fuc(a1-3)]GlcNAc
# Outline: as §1
# [37] = target: Fuc(a1-2)Gal(b1-4)[Fuc(a1-3)]GlcNAc(b1-3)GalNAc
# Outline: as §1
# [38] = target: Fuc(a1-2)Gal(b1-4)[Fuc(a1-3)]GlcNAc(b1-3)[Neu5Ac(a2-6)Gal(b1-4)GlcNAc(b1-6)]Gal(b1-4)Glc
# Outline: as §1
# [39] = target: Fuc(a1-2)Gal3S(b1-4)GlcNAc
# Outline: as §1
binder,measurement,setting,value
"NPA (Narcissus pseudonarcissus), C0HM45 (protein) DNILYSGETLSPGEFLNNGRYVFIMQEDCNLVLYDVDKPIWATNTGGLDRRCHLSMQSDGNLVVYSPRNNPIWASNTGGENGNYVCVLQKDRNVVIYGTARWATGTNIH",glycan array binding signal (z-score),Fuc(a1-2)Gal,-0.146
same,glycan array binding signal (z-score),Fuc(a1-2)Gal(b1-3)GalNAc,-0.146
same,glycan array binding signal (z-score),[1],-0.144
same,glycan array binding signal (z-score),[2],-0.152
same,glycan array binding signal (z-score),[3],-0.151
same,glycan array binding signal (z-score),[4],-0.151
same,glycan array binding signal (z-score),[5],-0.145
same,glycan array binding signal (z-score),Fuc(a1-2)Gal(b1-3)GlcNAc,-0.154
same,glycan array binding signal (z-score),[6],0.239
same,glycan array binding signal (z-score),[7],0.342
same,glycan array binding signal (z-score),[8],-0.152
same,glycan array binding signal (z-score),[9],-0.151
same,glycan array binding signal (z-score),[10],-0.124
same,glycan array binding signal (z-score),[11],-0.14
same,glycan array binding signal (z-score),[12],-0.142
same,glycan array binding signal (z-score),[13],-0.133
same,glycan array binding signal (z-score),[14],-0.157
same,glycan array binding signal (z-score),[15],-0.059
same,glycan array binding signal (z-score),[16],0.007
same,glycan array binding signal (z-score),[17],-0.15
same,glycan array binding signal (z-score),[18],-0.13
same,glycan array binding signal (z-score),[19],-0.077
same,glycan array binding signal (z-score),Fuc(a1-2)Gal(b1-4)Glc,-0.143
same,glycan array binding signal (z-score),Fuc(a1-2)Gal(b1-4)Glc6S,-0.134
same,glycan array binding signal (z-score),Fuc(a1-2)Gal(b1-4)GlcNAc,-0.15
same,glycan array binding signal (z-score),[20],-0.14
same,glycan array binding signal (z-score),[21],0.11
same,glycan array binding signal (z-score),[22],0.265
same,glycan array binding signal (z-score),[23],0.016
same,glycan array binding signal (z-score),[24],-0.156
same,glycan array binding signal (z-score),[25],-0.103
same,glycan array binding signal (z-score),[26],-0.157
same,glycan array binding signal (z-score),[27],-0.138
same,glycan array binding signal (z-score),[28],-0.137
same,glycan array binding signal (z-score),[29],-0.15
same,glycan array binding signal (z-score),[30],-0.111
same,glycan array binding signal (z-score),[31],-0.149
same,glycan array binding signal (z-score),[32],-0.15
same,glycan array binding signal (z-score),[33],-0.037
same,glycan array binding signal (z-score),[34],-0.063
same,glycan array binding signal (z-score),[35],-0.154
same,glycan array binding signal (z-score),[36],-0.143
same,glycan array binding signal (z-score),[37],-0.09
same,glycan array binding signal (z-score),[38],-0.144
same,glycan array binding signal (z-score),[39],-0.138
